± gives the standard deviation. The list shows a part of the results, in another mix than the full data.
These sequences were tested on MIWI (PIWIL1) piRISC loaded with L1MC piRNA (30 nt) (assay: pre-steady-state target cleavage rate (min^-1); MIWI and MILI are mouse PIWI proteins and EfPiwi is from a freshwater sponge; tags in brackets are library labels; higher = faster piRNA-guided slicing of the target). Conditions: guide: L1MC piRNA 5'p-UAACUAAAUACUAUGCAAGCUGUAGGUCCU; auxiliary factor: 500 nM mouse GTSF1.
In short: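 At 33 °C in HEPES–potassium acetate buffer, a transcribed, DNA-blocked target RNA library […] was exposed for 0–8 or 0–960 min to 1 nM active affinity-purified piRISC carrying a single synthetic guide, with or without 500 nM GTSF1 partner protein. Uncleaved targets were sequenced and normalised to depth and to weakly complementary targets. With three trials pooled and k3 capped at 0.0001 min^-1, a burst-and-steady-state fit produced the pre-steady-state cleavage rate.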
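Also: 1 nM active piRISC with 0.1 nM target library at 33 °C single turnover.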

Point of comparison: UCCUGGAUGUCGAAGCAUAGUAUUGAGUUA, “pre-steady-state target cleavage rate” value 0.00956 ± 0.0032. Against it:
- UCCUGCUACAGCUUGCAUAGAUAUUUAGUUA — within error, 0.00924 ± 0.0054
- UCCUGGAUGUCGUUGCAUAGUCUUUAGUUA — within error, 0.00588 ± 0.0031
- UCCUGGUACAGCUUCGAUAGUAUUUAGUAA — higher, 0.216 ± 0.033
- UCCUGCUACAGCUUGGAUAGUAUUUAGAAA — higher, 0.0981 ± 0.022
- UCCUGGUACAGCUUGCAUAGUAUUAAGAAA — higher, 0.101 ± 0.023
- AGGUGCUACAGCUUGCAUAGUAUUUACAAA — higher, 0.149 ± 0.032
- UGGACCUACAGCUUCGAUAGUAUUUAGUAA — higher, 0.307 ± 0.04
- UGGACCUACAGCUUGCAAUCUAUUUAGUAA — higher, 0.0744 ± 0.012
- UCCUGGUACAGCUUGCAGUAGUAUUUAGUUA — within error, 0.00567 ± 0.0039
- UCCUCCUACAGCUUGCAUUCUAUUUUCAAA — within error, 0.0121 ± 0.0059
- UCCACCUACAGCUUGCAUAGUUAAUAGAAA — higher, 0.0675 ± 0.022
- AGGACCUACAGCUUGCAUACAUUUUAGUUA — within error, 0.0106 ± 0.0061

Same assay, conditions: guide: L1MC piRNA 5'p-UAACUAAAUACUAUGCAAGCUGUAGGUCCU; auxiliary factor: none (no GTSF1)

“UCCUGGAUGUCGAACCAUAGUAUUUAGUUC [g2:g15:cont:t1C]” and UCCUGGAUGUCGAACGAUAGUAUUUCGUUA cannot be ordered by “pre-steady-state target cleavage rate” value: less than 0.0001 for the first, less than 0.0001 for the second.

With UCCUGGAUGUCGUUGCAUUGUAUUUAGAUA the “pre-steady-state target cleavage rate” value was less than 0.0001.

— the supplement of paper PMC10338343
